Results published in article PMC10668032.
Some of the results follow. At the low end of the ranking the order means little.

Target: SIX1-Q177R homeodomain (UniProt Q15475)
Assay: universal protein binding microarray
Conditions: Universal all-10-mer PBM (8x60K, AMADID 030236), 300 nM GST-tagged protein, Alexa Fluor 488 anti-GST; buffer, salt, pH and temperature not stated; high values mean tight binding; most listed sequences are background and not binding sites; double strand, one strand shown

| Sequence | binding signal |
| --- | --- |
| AATGGGAG | -0.135 E-score |
| AATATCAC | 0.0154 E-score |
| GAGCATCC | -0.179 E-score |
| AGAAACCT | -0.03 E-score |
| ATTACAAT | -0.0936 E-score |
| CTTTACCC | 0.171 E-score |
| ACAGTGAC | 0.0585 E-score |
| CGGCTCAC | -0.109 E-score |
| CTAGCGGA | -0.2 E-score |
| AAGCGTGT | 0.378 E-score |
| ATAATCCC | 0.162 E-score |
| GCGCTAGC | -0.186 E-score |
| ACGCCGTC | -0.0777 E-score |
| ATTGCATC | -0.0449 E-score |
| CAAACCTC | -0.064 E-score |
| CTCCGAAG | 0.0347 E-score |
| GGCTCGAC | 0.111 E-score |
| TGAGTGAA | -0.174 E-score |
| CTTTCCGA | -0.122 E-score |
| ACAGTAGC | -0.21 E-score |
| GGCGTGAA | -0.0323 E-score |
| GACATAGA | -0.257 E-score |
| TCGTCGAA | -0.198 E-score |
| ACTTCACT | -0.137 E-score |
| GAGGTTTA | -0.00176 E-score |

| Sequence | binding signal |
| --- | --- |
| ACTCCATG | 0.212 E-score |
| GCTCAACC | -0.159 E-score |
| ATCCACAA | 0.0164 E-score |
| ACATCTTA | -0.193 E-score |
| CCGTGACA | 0.307 E-score |
| CCGTGGAA | -0.0689 E-score |
| AGAACGAA | -0.0925 E-score |
| ATGAACTG | -0.183 E-score |
| AGACCAGA | -0.143 E-score |
| CCGGTTAA | 0.00562 E-score |
| ATCGACAA | -0.00117 E-score |
| GCATTCCA | -0.252 E-score |
| CCCGTACG | 0.0642 E-score |
| GCCGCCAA | -0.207 E-score |
| GATTCACC | -0.0714 E-score |
| GCTAATTA | -0.167 E-score |
| AGTCTGAC | -0.0699 E-score |
| GATGAAAA | -0.0321 E-score |
| ATTATGGC | -0.104 E-score |
| ATTTGGTC | -0.277 E-score |
| CGTTGTCC | -0.0142 E-score |
| GAGCCAGA | -0.0981 E-score |
| CAACTCTA | -0.0282 E-score |
| TACCCACA | 0.174 E-score |
| CCGACGAC | 0.0876 E-score |

| Sequence | binding signal |
| --- | --- |
| AACTTGGC | -0.168 E-score |
| CGGTTATC | 0.109 E-score |
| CGGTGCAA | 0.259 E-score |
| AGTGGGGG | 0.127 E-score |
| TCTGCGCA | -0.185 E-score |
| TACATCGA | 0.0772 E-score |
| ACTGCGAG | -0.00221 E-score |
| AGGTGTAG | 0.473 E-score |
| ATACATTA | -0.032 E-score |
| ATTACGTG | 0.198 E-score |
| ACTTCAGC | -0.207 E-score |
| CAGCCCCG | -0.104 E-score |
| ACCAACAC | 0.41 E-score |
| TCATTGCA | -0.0589 E-score |
| CAATTGGC | -0.247 E-score |
| ATGTTTCG | -0.0972 E-score |
| ATTCGTGG | -0.126 E-score |
| CACAACTA | 0.0334 E-score |
| GATGAATC | -0.205 E-score |
| AGAATCTC | -0.0592 E-score |
| ACGAAAGA | -0.25 E-score |
| CTAGGATA | 0.123 E-score |
| AATTGTGC | 0.0205 E-score |
| ATTAATAG | -0.0707 E-score |
| GATGCGCA | -0.0997 E-score |

| Sequence | binding signal |
| --- | --- |
| AACCAGAT | -0.00298 E-score |
| GAACGCTC | -0.283 E-score |
| AGCCCAAC | -0.0323 E-score |
| AAGATCCT | -0.0376 E-score |
| AAGCCAAG | -0.135 E-score |
| CATGCGGG | -0.0566 E-score |
| CCTGACCA | -0.0116 E-score |
| ATGCGACA | 0.198 E-score |
| AGTATCAG | 0.266 E-score |
| GGGTTACC | 0.0986 E-score |
| AGAATACC | 0.101 E-score |
| GATTCGGA | -0.133 E-score |
| AATACCTA | -0.0986 E-score |
| AGCTTTCC | -0.162 E-score |
| AGTAGCGC | -0.0475 E-score |
| TATCCCAA | 0.0763 E-score |
| CCGTTCGC | -0.0712 E-score |
| CCCCTACG | 0.181 E-score |
| GTACCTCA | 0.125 E-score |
| ACGGTGTA | 0.469 E-score |
| TCTGCAAA | -0.179 E-score |
| CGCGACCG | -0.0755 E-score |
| ACCAGCGA | 0.051 E-score |
| ACATCGAC | -0.0512 E-score |
| CTAGATAA | -0.0825 E-score |

| Sequence | binding signal |
| --- | --- |
| GTAGTCGA | -0.122 E-score |
| CAACTCCG | 0.125 E-score |
| CATAAAGG | -0.00347 E-score |
| GAAGATTC | -0.287 E-score |
| GAATGGAC | -0.1 E-score |
| TTACCCAA | 0.0536 E-score |
| AGACCGAC | -0.0247 E-score |
| CAGTACGA | -0.249 E-score |
| ACCTTTAG | 0.0227 E-score |
| GAAAAAAA | -0.11 E-score |
| GCTTGCAA | -0.264 E-score |
| AGTCGCGC | -0.213 E-score |
| CTCCAGAG | -0.0703 E-score |
| AGACATCT | -0.211 E-score |
| AACCGATG | -0.257 E-score |
| GATATAAA | -0.124 E-score |
| CACCAAGC | 0.26 E-score |
| ATAGCGGA | -0.162 E-score |
| AGAGAAAC | 0.0252 E-score |
| ATGTCAGG | -0.146 E-score |
| AATGCAAG | -0.0694 E-score |
| ATTGTTCA | -0.12 E-score |
| ACTCTACT | 0.108 E-score |
| CCACATCG | 0.016 E-score |
| CTCGTGAA | -0.125 E-score |

| Sequence | binding signal |
| --- | --- |
| AAACGATT | -0.164 E-score |
| ATATCCGC | 0.00412 E-score |
| CATTAGTA | 0.00877 E-score |
| GAAACAAC | -0.0101 E-score |
| AAACGGCG | -0.116 E-score |
| CAGTCAGG | -0.0544 E-score |
| CAAACCCG | -0.0675 E-score |
| GTCGGCCA | -0.0402 E-score |
| GAGGAAGC | -0.205 E-score |
| GCCTTGAC | -0.0969 E-score |
| ATTTGTTG | 0.00624 E-score |
| AGTCGTTA | -0.112 E-score |
| AATTAAAT | -0.247 E-score |
| AAATGCGA | -0.064 E-score |
| CCGGGGCG | 0.0986 E-score |
| AGGCGCCG | 0.00941 E-score |
| GATAGTGC | 0.0101 E-score |
| ACGACCAT | -0.137 E-score |
| CGCTCCTC | -0.0867 E-score |
| CCTAAGCC | -0.0982 E-score |
| AAACAGTT | -0.264 E-score |
| TCGTAGCA | -0.0231 E-score |
| CAGTCAAC | -0.0652 E-score |
| CACAGCCA | 0.0567 E-score |
| AGAGGGGC | -0.113 E-score |

| Sequence | binding signal |
| --- | --- |
| ACACGCAA | 0.395 E-score |
| ACTAATAG | -0.05 E-score |
| GCTCCAAC | -0.215 E-score |
| GCAGGGGC | -0.119 E-score |
| AACAAGAT | -0.0301 E-score |
| ACAATATA | -0.0578 E-score |
| ACTATACA | 0.238 E-score |
| AAACTATA | -0.058 E-score |
| ATGAGAAT | -0.0487 E-score |
| ACGGGGTA | 0.233 E-score |
| ATTGGTGG | -0.111 E-score |
| GCGCGCTA | -0.016 E-score |
| ATGCGCCC | -0.0422 E-score |
| CGGAAGAG | -0.0407 E-score |
| AGTGGTAA | -0.269 E-score |
| GGATAGTA | 0.121 E-score |
| CCGAAGAA | -0.0497 E-score |
| ACGAGCGG | 0.116 E-score |
| AAGTTACA | 0.171 E-score |
| AAAGACTG | -0.156 E-score |
| ACAGGGGG | 0.0825 E-score |
| CGCCTGAG | -0.128 E-score |
